# Results: the supplement of paper PMC3334620
# Over roughly 33,000 sequences, “E-score (-0.5 to 0.5)” has its median near -0.021; the highest 2% begin near 0.32. This is one part of the list.
# Biological target: T1, Zap1 (UniProt P47043)
# T1 sequence: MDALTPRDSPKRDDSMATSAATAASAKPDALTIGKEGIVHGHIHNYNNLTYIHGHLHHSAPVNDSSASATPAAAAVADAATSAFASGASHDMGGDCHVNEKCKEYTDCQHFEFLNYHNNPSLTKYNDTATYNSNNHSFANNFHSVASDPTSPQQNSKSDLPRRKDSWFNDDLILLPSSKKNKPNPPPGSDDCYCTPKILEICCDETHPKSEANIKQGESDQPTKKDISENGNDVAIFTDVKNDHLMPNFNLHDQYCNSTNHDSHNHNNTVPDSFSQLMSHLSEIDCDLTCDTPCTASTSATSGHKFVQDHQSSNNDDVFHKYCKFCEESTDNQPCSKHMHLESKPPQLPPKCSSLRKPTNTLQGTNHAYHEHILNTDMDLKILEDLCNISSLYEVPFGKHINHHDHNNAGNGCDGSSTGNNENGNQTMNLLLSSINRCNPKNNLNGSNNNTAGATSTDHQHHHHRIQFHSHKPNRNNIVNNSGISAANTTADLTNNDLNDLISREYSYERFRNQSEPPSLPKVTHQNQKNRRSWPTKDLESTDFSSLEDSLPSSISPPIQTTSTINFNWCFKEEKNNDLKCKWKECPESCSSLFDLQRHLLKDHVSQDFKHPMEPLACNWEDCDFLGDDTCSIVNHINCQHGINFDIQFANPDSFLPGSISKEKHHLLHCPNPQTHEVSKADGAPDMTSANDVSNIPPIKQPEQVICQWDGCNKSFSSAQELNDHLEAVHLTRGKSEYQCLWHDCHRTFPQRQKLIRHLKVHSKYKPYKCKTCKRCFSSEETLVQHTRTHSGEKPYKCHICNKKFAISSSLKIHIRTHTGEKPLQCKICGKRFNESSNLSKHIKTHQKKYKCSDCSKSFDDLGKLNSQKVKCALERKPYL
# Experiment: PBM E-score (8-mer binding enrichment) (E-score (-0.5 to 0.5)); higher = stronger / more preferred TF binding; most listed sequences are background and not binding sites
# Conditions: protein concentration: 200 nM; construct: GST-full length
# Procedure, shortened: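 Full-length yeast transcription factors or their DNA-binding domains, GST-tagged and expressed with PURExpress, were applied at about 100-200 nM to universal all-10-mer Agilent arrays. These arrays had been made double-stranded by primer extension on fresh or once-stripped slides. Detection used fluorescent anti-GST, normalisation used masliner, and E-scores for ungapped eight-base words pooled with reverse complements came from the Universal PBM Analysis Suite.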
row,Sequence,PBM E-score
1,CCTGATGA,0.224
2,ACTTCGTA,-0.16
3,AGCGTCAG,-0.136
4,ACTTACCC,0.113
5,ACGACCTG,-0.111
6,CCCACACA,-0.0115
7,AAGTGAGC,-0.11
8,TAAGCCGA,-0.00581
9,GGGGATGA,-0.192
10,ATAAACCC,0.308
11,CAAACAAC,0.263
12,ACTTCTGA,-0.11
13,GTAAGCTA,-0.0341
14,ACTACCTC,0.356
15,CGCGATGC,-0.197
16,CTTCTCCA,-0.276
17,ACAGGTGA,0.0408
18,AGGGTCCG,-0.0112
19,AGTTCCCA,0.093
20,CATATCGG,-0.0626
21,TGTGTCAA,0.073
22,CAGGACGC,-0.186
23,CAAATATA,-0.00535
24,AGCGGTAG,-0.0368
25,CAGGGGGC,-0.223

row,Sequence,PBM E-score
1,GCCCGCGA,-0.0219
2,GTCCTGGA,-0.202
3,ACCTGTAT,0.257
4,AAAATCGG,-0.0581
5,GACGATGA,-0.134
6,CCGCGTTC,0.0519
7,GAAAAATC,0.0472
8,CTGTCTAC,-0.117
9,GACGTTTA,-0.109
10,ACTGGCCG,-0.279
11,AGGATGTA,-0.0509
12,ATAGAAGC,-0.0622
13,CGTAGAAC,-0.0192
14,AACTCACC,-0.0088
15,ACAATCTC,-0.12
16,GTTTGAGA,0.0992
17,TAAGCAAA,-0.0618
18,CAGTACCG,0.104
19,GCAACGGA,-0.117
20,TATTTAAA,0.261
21,GTAAGACA,0.00958
22,AATTGCAC,0.0718
23,AGTTCCAA,0.14
24,GGGACCGA,-0.117
25,GGTATTAC,0.16

row,Sequence,PBM E-score
1,CGTACTGC,-0.194
2,AATACCCA,0.158
3,AAACAAGG,0.0392
4,CAGGGTTC,0.214
5,CATTGGGG,-0.135
6,AAAGCGAA,0.0139
7,ATCCATTC,0.0275
8,AGTCTAGG,-0.183
9,AGGGGCAA,-0.164
10,AGTGTTGA,-0.00039
11,AAGTGATG,-0.228
12,GCACCGAA,-0.0792
13,AATTCGAG,-0.131
14,CCATTTAA,0.145
15,ATCCTTGG,-0.139
16,AGAAAAAA,0.0725
17,CACTCAGC,-0.23
18,ACTTCTCG,-0.0464
19,AACTCGTC,0.041
20,GGATTCGA,-0.103
21,AAGTTGAG,-0.0772
22,AAGACTGT,-0.345
23,ACGAAACC,0.222
24,CAGGTCGA,0.0408
25,GACGTGCC,-0.287

row,Sequence,PBM E-score
1,TCCCTGCA,0.0185
2,AGGGGGTC,-0.354
3,ATGGCCTA,-0.0694
4,ATTAACGG,0.0866
5,GTTGAGAA,-0.027
6,GTGTCAGA,0.0459
7,GTACTGCA,0.0754
8,ACTGCTCT,-0.00554
9,GACCAATC,0.182
10,CCCGGGAG,0.0949
11,CATAAGTC,-0.069
12,CTACATCC,-0.223
13,CAGTACAC,0.0429
14,AATAGTGC,0.0684
15,GGACGTCC,-0.234
16,CCCCAACC,0.208
17,AGAAAGAC,0.0317
18,GAAATGCC,-0.0267
19,GATTTCGA,-0.00027
20,CAGAACAG,-0.114
21,AGCGGTGA,-0.0388
22,ACTAAGAG,-0.0689
23,AGTAATAA,0.137
24,CGCATGCA,0.0118
25,AGGCCGTA,0.132

row,Sequence,PBM E-score
1,GAGCAGCC,-0.199
2,GTATGTCA,0.0926
3,GCGCACCA,-0.0327
4,CCTGCTAA,-0.0998
5,AGCCGTAA,0.0628
6,TCTAAACA,-0.0187
7,AACACTGG,-0.0654
8,CGATGGAA,-0.0794
9,ACTCTTCC,-0.0943
10,ACAGCCAG,-0.152
11,ATTCATCA,0.0213
12,GAGTAGAA,0.0322
13,ATAAGAGC,-0.198
14,GAAGACCA,0.0297
15,ACGCGGCC,-0.0697
16,CGGAAGGC,-0.069
17,AGGTAGTA,0.337
18,CAGCCCGA,-0.192
19,ACGCAGCG,-0.108
20,AGGAACAC,0.183
21,AGTCATTC,-0.193
22,ATGCGACG,-0.222
23,CTTACGAA,0.0217
24,TACTGGCA,-0.0304
25,GAGGGCAA,-0.0412

row,Sequence,PBM E-score
1,TACTCGGA,0.0978
2,CACCTAGA,-0.138
3,AACCTACA,0.264
4,AAGAGGAT,-0.179
5,ACAAGATC,-0.0624
6,CTATGCAG,-0.0853
7,AAAATTGT,0.166
8,GACCTTTA,0.401
9,GCACGGGA,-0.222
10,CTGCCCGC,-0.161
11,CGGTTATA,0.405
12,GAAGCGTA,-0.181
13,ACTGAGGC,-0.175
14,AATCTATC,0.0923
15,AACTGGAT,-0.0687
16,AATACTCC,0.0467
17,CAGTGCCC,-0.237
18,GAACTAAC,0.0342
19,CGTCGGGC,-0.177
20,CTTATCCC,-0.163
21,CCTTTCCA,0.0518
22,CGATAACC,0.46
23,GCCTCTAA,-0.088
24,GGTCAGAC,0.103
25,ATCCATCA,-0.108

row,Sequence,PBM E-score
1,GGCGAGAC,-0.127
2,ATTTTGTC,0.0902
3,AAGTTATT,0.222
4,CAGTCGAA,-0.21
5,GATCTGAA,-0.117
6,ACGCTAAA,-0.0724
7,ACCTTCAT,0.123
8,GGCCATCA,0.157
9,ATAAAGTG,0.191
10,CCTAGGAA,0.106
11,GATGTCTA,-0.0324
12,CCTTTACG,0.191
13,AATGGAAT,0.126
14,CTGAAGCC,-0.31
15,CTGACTCA,-0.0719
16,CAGTACGC,-0.0967
17,CAATGTGG,-0.0265
18,ACTAGATA,0.115
19,ATAGTTTC,-0.17
20,AAACACGC,-0.0239
21,GACCTCTA,0.318
22,CAAGTAGG,-0.239
